Here are results for 28 molecules from PubChem BioAssay AID488969 (Vanderbilt High Throughput Screening Facility, 2010).

The full ranking holds about 110,000 compounds; the median of “z-score” is about -0.1, and the highest 2% start at about 2. Some of the results follow. Active and inactive are the calls of the source.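 How the source made its calls: active means z-score in the third read window above 3 or below -3; inactive means the rest.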

This test deals with Metabotropic glutamate receptor 8 (Rattus norvegicus) (UniProt P70579). Briefly: rat mGluR8 modulators via GIRK flux, primary screen, cell-based, thallium flux, HTS (AID 488969). The note with it: HEK293 rat mGluR8, GIRK (G protein-gated inwardly rectifying potassium channel) thallium flux, FluoZin2; at 10 µM; stronger effect = higher value; submaximal glutamate (EC20) added with thallium.
Sequence of UniProt P70579 (P70579 whole entry, looked up): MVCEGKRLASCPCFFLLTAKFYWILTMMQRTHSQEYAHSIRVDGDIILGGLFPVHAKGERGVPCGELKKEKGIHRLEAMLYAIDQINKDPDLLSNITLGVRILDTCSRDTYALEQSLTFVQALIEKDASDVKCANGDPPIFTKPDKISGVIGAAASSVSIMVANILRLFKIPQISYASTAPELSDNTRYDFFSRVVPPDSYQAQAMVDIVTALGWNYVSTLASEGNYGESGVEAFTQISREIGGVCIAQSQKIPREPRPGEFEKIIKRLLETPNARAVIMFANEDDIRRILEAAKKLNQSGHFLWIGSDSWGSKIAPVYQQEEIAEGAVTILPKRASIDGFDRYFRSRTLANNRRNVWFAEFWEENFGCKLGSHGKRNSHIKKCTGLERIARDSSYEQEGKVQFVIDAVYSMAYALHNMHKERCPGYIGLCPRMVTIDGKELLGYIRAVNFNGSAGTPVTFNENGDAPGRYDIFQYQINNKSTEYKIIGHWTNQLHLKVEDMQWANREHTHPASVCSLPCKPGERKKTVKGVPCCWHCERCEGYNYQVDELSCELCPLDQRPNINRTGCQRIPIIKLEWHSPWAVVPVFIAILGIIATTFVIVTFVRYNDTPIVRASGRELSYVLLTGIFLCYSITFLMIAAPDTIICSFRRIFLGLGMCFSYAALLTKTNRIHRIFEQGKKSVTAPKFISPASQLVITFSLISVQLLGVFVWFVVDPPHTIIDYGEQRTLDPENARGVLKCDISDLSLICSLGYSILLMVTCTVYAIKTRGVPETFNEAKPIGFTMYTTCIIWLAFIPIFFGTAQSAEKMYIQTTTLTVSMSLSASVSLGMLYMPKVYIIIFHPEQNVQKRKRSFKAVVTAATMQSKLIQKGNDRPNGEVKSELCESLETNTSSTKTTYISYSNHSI
In turn, `CCOc1ccc(NC(=O)CCNS(=O)(=O)c2cccs2)cc1` had a z-score of -0.225.

For `O=S(=O)(c1ccc(Cl)cc1)N1CCN=C1SCc1ccc(Cl)c(Cl)c1`, the z-score is 0.114. For `CCCSc1nc(SCC(=O)NCc2ccccc2)c2c3c(sc2n1)COC(C)(C)C3` the value was -0.825; for `CCCc1nc2ccccc2c(=O)n1/N=C/c1ccc(O)c(O)c1`, 1.52. The same measure for `Cc1ccc(S(=O)(=O)C2CS(=O)(=O)CC2O)cc1` (stereo not drawn): -0.076; for `CCOC(=O)c1cnn(CCOC(=O)C(C)(C)C)c1NC(=O)C(C)(C)C`: -0.215.

`CCC(=O)Nc1ccc(NC(=O)CSc2nnnn2C(C)C)cc1` came in with a z-score of -0.24. For the molecule `C=CCn1c(SC(C)C(=O)NC2(C#N)CCCCC2)nnc1-c1ccc(OC)cc1` (stereo not drawn), the z-score amounted to 0.188.

In turn, `O=C(Cn1c(COc2ccccc2)nc2ccccc21)Nc1cc(Cl)cc(Cl)c1` gave a z-score of 0.0164.

`COc1ccc(-c2cc(C(=O)NCCN3CCOCC3)c3ccccc3n2)c(OC)c1` came in with a z-score of 0.0852. For `CCCC(=O)Nc1c2c(nn1-c1ccc(OC)cc1)CS(=O)C2` (stereo not drawn) the value was -1.01. The same measure for `CCCOc1cccc(C(=O)NC(=S)Nc2cccc(C(F)(F)F)c2)c1`: active: 3.57; for `COc1ccccc1-c1nnc(SC(C(=O)c2c[nH]c3ccccc23)c2ccccc2)n1C` (stereo not drawn): -0.221.

The molecule `CCCCNC(=O)Nc1c(C(=O)OCC)[nH]c2ccccc12` had a z-score of 0.168.

Take `CCOC(=O)N/N=C/c1cc(C)n(-c2cccc3ccccc23)c1C`: the z-score is 0.402.

For `O=C(NCCCN1CCOCC1)c1cnn2c(-c3ccccc3)cc(-c3ccccc3)nc12`, the z-score was -0.635. Molecule `O=C(OCCCCN1C(=O)c2ccccc2C1=O)c1ccc(Br)o1` registered a z-score of -0.527. For `CCOC(=O)c1c(NC(=O)C2c3ccccc3Oc3ccccc32)sc(C(=O)N(CC)CC)c1C` the value was 0.0462.

On to `O=c1c(/C=N/Nc2ccccc2)c(Sc2nnnn2-c2ccccc2)nc2ccccn12`, for which the z-score was -0.379. The same measure for `CC1CCN(C(=O)C2CCC(CNS(=O)(=O)c3cccc4cccnc34)CC2)CC1` (stereo not drawn): -0.537; for `COc1ccc(N2C(=O)NC(NC(=O)c3ccncc3)(C(F)(F)F)C2=O)cc1` (stereo not drawn): -0.195; for `COC(=O)C(CC(=O)c1ccc(Cl)cc1)c1ccc(C(C)C)cc1` (stereo not drawn): -0.0764.

Consider `Cc1c(NC(=O)CN2CCN(c3ccccc3)CC2)c(=O)n(-c2ccccc2)n1C`, for which the z-score is -0.0454.

Regarding `C/C(=N\O)C(=O)C(CN1CCCCC1)CN1CCCCC1`, the z-score worked out at 0.246. Molecule `CCOC(=O)c1c(NC(=O)CSc2nc3cccnc3n2C)sc(C(C)=O)c1C` registered a z-score of -0.206. `S=C(NC1CCCC1)N1CCN(c2ccccn2)CC1` returned a z-score of -0.0853. For `Cc1nn(-c2ccccc2)c(N2CCCC2)c1/C=N/Nc1ccc(S(=O)(=O)Nc2ccccc2)cc1[N+](=O)[O-]` the value was -0.151. For `COc1ccc([N+](=O)[O-])cc1NC(=O)CSc1nncn1-c1ccccc1` the value was -0.133.
